Whole data set: some 33,000 sequences, median “E-score (-0.5 to 0.5)” near -0.011, cut for the highest 2% near 0.28. This is one part of the list.
Each sequence was assayed against T1, Gcr1 (UniProt P07261) (assay: PBM E-score (8-mer binding enrichment) (E-score (-0.5 to 0.5)); higher = stronger / more preferred TF binding; most listed sequences are background and not binding sites). Details: protein concentration: 100 nM; construct: GST-full length.
T1 sequence: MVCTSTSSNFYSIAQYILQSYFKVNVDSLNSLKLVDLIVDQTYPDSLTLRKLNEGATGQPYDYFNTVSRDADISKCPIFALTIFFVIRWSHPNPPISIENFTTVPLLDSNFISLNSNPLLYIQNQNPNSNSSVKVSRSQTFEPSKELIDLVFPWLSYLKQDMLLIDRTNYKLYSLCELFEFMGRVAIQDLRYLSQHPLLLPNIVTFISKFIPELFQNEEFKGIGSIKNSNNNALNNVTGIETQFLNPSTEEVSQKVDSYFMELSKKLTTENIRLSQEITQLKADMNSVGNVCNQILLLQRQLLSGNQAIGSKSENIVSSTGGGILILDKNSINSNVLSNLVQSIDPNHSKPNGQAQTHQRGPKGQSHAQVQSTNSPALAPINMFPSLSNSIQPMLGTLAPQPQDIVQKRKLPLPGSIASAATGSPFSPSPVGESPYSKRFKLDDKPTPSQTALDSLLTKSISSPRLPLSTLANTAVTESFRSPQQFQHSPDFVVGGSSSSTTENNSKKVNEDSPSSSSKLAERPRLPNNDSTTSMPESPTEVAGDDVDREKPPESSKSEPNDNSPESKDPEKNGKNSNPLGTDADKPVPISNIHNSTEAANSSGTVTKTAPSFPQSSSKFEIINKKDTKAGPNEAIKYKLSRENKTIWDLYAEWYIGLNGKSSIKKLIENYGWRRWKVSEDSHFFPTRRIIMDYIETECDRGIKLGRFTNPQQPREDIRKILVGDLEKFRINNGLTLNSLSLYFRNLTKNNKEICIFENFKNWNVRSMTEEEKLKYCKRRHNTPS
How it was run: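 For each ungapped eight-base word taken together with its reverse complement, the Universal PBM Analysis Suite assigned an E-score. Binding data came from GST-tagged yeast transcription factors, applied at about 100-200 nM, on universal all-10-mer Agilent arrays made double-stranded by primer extension. Fluorescent anti-GST marked bound protein, and scans were normalised with masliner.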

Sequence	PBM E-score
CAGACCTG	-0.308
AGGTTAAT	-0.0118
ACTCAGAA	0.103
GAGACAAC	-0.107
AAAGCAGT	0.143
GAGGTGAC	0.075
CCATCATA	-0.0227
AGCTTACC	-0.301
AATGGCCC	-0.112
CGGAATGC	0.174
ACGTCACG	-0.0191
AGGCATAC	-0.0777
ACATTCAA	-0.0575
AATAACCT	-0.113
GAGTGTCC	-0.0502
GGTCGTAA	-0.147
CGCACGCC	-0.0905
ATTTGTTC	0.0973
ACTCTCTG	-0.137
AGGATTAG	0.0547
CCGGGACA	-0.0293
GCTGTACC	0.0537
AAGGTGCG	-0.142
ACACTCAA	0.0334

Sequence	PBM E-score
AAGCTACC	0.178
TACTCGCA	-0.146
GTTACGGA	0.0899
GACATCGA	-0.157
ATGTATTA	0.0636
CGCACCGC	-0.0652
ATCGAGGA	0.0116
AACTCTTA	-0.0847
GGCCCGAC	-0.214
CGCTCACC	-0.158
GCTATACC	-0.0854
AGCACCTG	0.102
AACGGTCC	-0.271
AAACAAGC	0.0265
AATGCCAA	0.042
ACCTGCCC	-0.2
AGTCCGGG	-0.0176
CGTCGCCA	0.0608
CTGCCTAC	0.0139
ATCCAGGG	0.0864
TAACCGTA	-0.00909
GGACCCAA	0.17
GCTATTCA	-0.0743
GAGAGAAA	0.0376

Sequence	PBM E-score
CCCGCGCG	-0.177
CGGGTGAA	0.0211
GGCCGGAC	-0.222
GCCAGCTA	-0.135
AATACGTG	0.0495
GACGGATC	-0.0848
AAAACATA	-0.123
AGTATCTC	0.139
GACTTTGC	-0.106
CGTTCACC	-0.119
AAAACGTA	0.104
CTAGGATA	-0.0867
ACGCTATG	-0.0359
CCATTCCC	-0.0773
CGTGAACG	0.0112
ATAAATTG	0.135
GCTTTAAC	-0.0563
ATTGATTG	0.16
AAAAATAT	0.247
GCGATCAC	-0.0279
AGACCAAC	0.0298
CAAGGATG	-0.0389
CTTGGCGA	-0.1
AAGAGCTA	-0.0799

Sequence	PBM E-score
ACTCGCCC	-0.336
GGCTCAAA	0.0366
CCAACCTC	-0.144
ACGGCCGG	-0.15
ACATTTGA	0.101
TAAGCGAA	0.101
AATCTTGC	-0.0446
CCTGGAGC	0.173
ACTATTAC	0.187
TATAACCA	-0.177
CTAAAGTC	-0.117
CTACATAA	0.0313
GTTGCAAC	0.00911
CATAGGCC	-0.243
AATGCCGG	0.0215
TAATTAGA	0.155
AAGAAACC	0.0595
ACCATCGA	-0.119
GTCAGCAA	-0.063
AGCCATTA	0.0444
ACACGTTC	-0.11
TGACATCA	0.0357

From the supplement of paper PMC3334620
